The text below walks through data of the RNAGym collection of RNA variant scans (doi:10.1073/pnas.2313332121).

B1: TPR 5TU (parent)
chain: GGAUCUUCUCGAUCUAACAAAAAAGACAAAUCUGCCACAAAGCUUGAGAGCAUCUUCGGAUGCAGAGGCGGCAGCCUUCGGUGGCGCGAUAGCGCCAACGUUCUCAACUAUGACACGCAAAACGCGUGCUCCGUUGAAUGGAGUUUAUCAUG

Variants at the floor of the assay are shown more often than the library holds them.

Variants of B1 are the subject of the data set. Description: polymerase ribozyme fitness, log enrichment relative to wild type (log ratio); higher = more active; in vitro selection for triplet polymerase activity. In outline:
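Genotype fitness is the logarithm of its enrichment divided by wild-type enrichment, using inverse-variance-weighted averages of replicates. That logarithm is base 2. Enrichment was measured by Illumina sequencing of input and output libraries from one triplicate in vitro selection round, with frozen incubation at −7 °C, on PCR-built, transcribed mutant libraries of each subunit of a heterodimeric triplet polymerase ribozyme, retaining genotypes with ≥10 input reads and ≥1 read per output.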
Consider A28U U45A U61G G74U A106U A110U G140U, for which the “polymerase ribozyme fitness (log ratio)” value is at most -4.2.

On to A29C G84A U127C G128A C132G U148C C149A, for which the “polymerase ribozyme fitness (log ratio)” value was at most -4.2.

For the variant A29G G94U A97G C149U, the “polymerase ribozyme fitness (log ratio)” value was at most -4.2.

A29G C32A C36U C85U C105A A113U G126U: the “polymerase ribozyme fitness (log ratio)” value was at most -4.2.

With A29C U90A U145A U148C, the “polymerase ribozyme fitness (log ratio)” value is at most -4.2.

Turning to A28U C57G C69A G84C C93U G94C U101C C149U, the “polymerase ribozyme fitness (log ratio)” value was at most -4.2.

For the variant A28U G58A G83C A97G C105A G143U, the “polymerase ribozyme fitness (log ratio)” value is at most -4.2.

Turning to A29C A30C G65A C93U G136A, the “polymerase ribozyme fitness (log ratio)” value is at most -4.2.

A29C C36U G88U A106U G124C G128A A138C: the “polymerase ribozyme fitness (log ratio)” value is at most -4.2.

For the variant A29C G59A G94U U102A A106G G141A, the “polymerase ribozyme fitness (log ratio)” value is at most -4.2.

As for A29C U31A A41G C57A C96U U102C G143A, the “polymerase ribozyme fitness (log ratio)” value is at most -4.2.

As for A28U U56A A91U C96G A107G C118A U146G, the “polymerase ribozyme fitness (log ratio)” value is at most -4.2.

As to A29C A40G G42C G58A C87U, the “polymerase ribozyme fitness (log ratio)” value is at most -4.2.

Consider A28U A49C G58U A60G U61A G84A C105G G141A G152C, for which the “polymerase ribozyme fitness (log ratio)” value was at most -4.2.

Take A29G C93G A121U A138C: the “polymerase ribozyme fitness (log ratio)” value was at most -4.2.

For the variant A28U C38A C85G C118A G143C, the “polymerase ribozyme fitness (log ratio)” value is at most -4.2.

Turning to A29G A47C C57U C95G C96G C99A, the “polymerase ribozyme fitness (log ratio)” value was at most -4.2.

Regarding A29C G50U C79G G128A U144A, the “polymerase ribozyme fitness (log ratio)” value was at most -4.2.

In the case of A29C G42C C72U C76A G86U C93G G136U, the “polymerase ribozyme fitness (log ratio)” value is at most -4.2.

A29U A39G G83A: the “polymerase ribozyme fitness (log ratio)” value was at most -4.2.

A28U C57A C85G C95G G136A G140U C149G: the “polymerase ribozyme fitness (log ratio)” value is at most -4.2.

Consider A28U U44G U82G C87U C114U G133A U146G, for which the “polymerase ribozyme fitness (log ratio)” value is at most -4.2.

Regarding A28U A47G G50C C95G, the “polymerase ribozyme fitness (log ratio)” value was at most -4.2.

With A29G U31A C43G, the “polymerase ribozyme fitness (log ratio)” value was at most -4.2.

On to A28U G58C G88A G94A, for which the “polymerase ribozyme fitness (log ratio)” value was at most -4.2.

Take A29C G58A C87G C93G G133A U145C: the “polymerase ribozyme fitness (log ratio)” value was at most -4.2.

Turning to A28U C35A G42A, the “polymerase ribozyme fitness (log ratio)” value is at most -4.2.

As to A29C C54A G83A C95U G100C C125U, the “polymerase ribozyme fitness (log ratio)” value is at most -4.2.

Regarding A28U U55G, the “polymerase ribozyme fitness (log ratio)” value is at most -4.2.

Consider A28U G48A G74C C96U C131A, for which the “polymerase ribozyme fitness (log ratio)” value is at most -4.2.

As to A29C C36U A47C C57G G67C C108G A138G, the “polymerase ribozyme fitness (log ratio)” value was at most -4.2.

As to A28U U77G G94U G136U U139C, the “polymerase ribozyme fitness (log ratio)” value was at most -4.2.

For the variant A29G U31A C96U C114U G140C, the “polymerase ribozyme fitness (log ratio)” value was at most -4.2.

A28U G67A G80U: the “polymerase ribozyme fitness (log ratio)” value was at most -4.2.

A29G U55A C95U U101C U109A G133A: the “polymerase ribozyme fitness (log ratio)” value is at most -4.2.

A28U A64U C79G C95U A113U C114U C125U: the “polymerase ribozyme fitness (log ratio)” value is at most -4.2.

As for A28U G92A G140C, the “polymerase ribozyme fitness (log ratio)” value is -3.61.

Consider A29G G48A A64G C79U A106U U111A, for which the “polymerase ribozyme fitness (log ratio)” value is at most -4.2.

As for A29U A30C U130G A138U, the “polymerase ribozyme fitness (log ratio)” value is at most -4.2.

On to A29G G58C A64G G92U C131G, for which the “polymerase ribozyme fitness (log ratio)” value is at most -4.2.

In the case of A29G G80C U90C C95G U101C C103A G143U, the “polymerase ribozyme fitness (log ratio)” value is at most -4.2.

Turning to A29U A39G C57G A66C C85G A91U, the “polymerase ribozyme fitness (log ratio)” value is at most -4.2.

As for A29C C69U G92A A97C U104G A107U U151G, the “polymerase ribozyme fitness (log ratio)” value was at most -4.2.

A28U A66C G83U A122G: the “polymerase ribozyme fitness (log ratio)” value is -4.16.

As to A28U A47C C76U U82G C95U, the “polymerase ribozyme fitness (log ratio)” value is at most -4.2.

On to A28U G74A C93A C125G A137C, for which the “polymerase ribozyme fitness (log ratio)” value is at most -4.2.

Consider A28U C103G G152U, for which the “polymerase ribozyme fitness (log ratio)” value was at most -4.2.

As to A28U G42U C43G U53G U78C G92C G128U, the “polymerase ribozyme fitness (log ratio)” value was at most -4.2.

Take A29C C54A U55G G88A G92U G124U: the “polymerase ribozyme fitness (log ratio)” value is at most -4.2.

Regarding A29C C51G C57G G92C A107C A110C G124A U145A U151G, the “polymerase ribozyme fitness (log ratio)” value was at most -4.2.

In the case of A28U U104G, the “polymerase ribozyme fitness (log ratio)” value was at most -4.2.

A29U A39G C103G A137U: the “polymerase ribozyme fitness (log ratio)” value was at most -4.2.

A28U U55G A89G A121U: the “polymerase ribozyme fitness (log ratio)” value was at most -4.2.

For the variant A28U A52G C85U G88A C95G U109G, the “polymerase ribozyme fitness (log ratio)” value is at most -4.2.

With A28U A49C C85G A122U, the “polymerase ribozyme fitness (log ratio)” value was at most -4.2.

On to A29C C35A U56A C93A, for which the “polymerase ribozyme fitness (log ratio)” value was at most -4.2.

Turning to A29G U56A C87G C99G, the “polymerase ribozyme fitness (log ratio)” value was at most -4.2.

As to A29C C38U G42U G81A G86A, the “polymerase ribozyme fitness (log ratio)” value is at most -4.2.

A29C G71U G83C: the “polymerase ribozyme fitness (log ratio)” value was at most -4.2.

Turning to A29C, the “polymerase ribozyme fitness (log ratio)” value was -3.73.

As for A29U, the “polymerase ribozyme fitness (log ratio)” value is -3.4.

On to A29G, for which the “polymerase ribozyme fitness (log ratio)” value was -1.81.

Consider A29C C54A C57U G74U C95A C105G U135A, for which the “polymerase ribozyme fitness (log ratio)” value was at most -4.2.

Take A29G U82C G92A A122C G126U: the “polymerase ribozyme fitness (log ratio)” value was at most -4.2.

A29U A40C G42U G71C G86U A97C U134A: the “polymerase ribozyme fitness (log ratio)” value is at most -4.2.

As for A29U A40C G48A U53A G80A, the “polymerase ribozyme fitness (log ratio)” value was at most -4.2.

In the case of A28U U139G, the “polymerase ribozyme fitness (log ratio)” value is at most -4.2.

In the case of A28U U90G C99U G141U U151G, the “polymerase ribozyme fitness (log ratio)” value was at most -4.2.

For A29C C32G G48C G84U C96G A97U, the “polymerase ribozyme fitness (log ratio)” value is at most -4.2.

As for A28U C43U C72U G84A C93G C132U A147C, the “polymerase ribozyme fitness (log ratio)” value was at most -4.2.

In the case of A29U A47C U55G C85G G92A U146A, the “polymerase ribozyme fitness (log ratio)” value was at most -4.2.

As to A29G C79A G112C U130G, the “polymerase ribozyme fitness (log ratio)” value was at most -4.2.

Regarding A28U C103G C105U C149A, the “polymerase ribozyme fitness (log ratio)” value is at most -4.2.

Turning to A28U C75A U78G G86U C99G U102G C116U U139A, the “polymerase ribozyme fitness (log ratio)” value was at most -4.2.

On to A28U G50C C76U C85U C103A C118U U144G, for which the “polymerase ribozyme fitness (log ratio)” value was at most -4.2.

For the variant A29C G59C U61G U77G U82C G86A, the “polymerase ribozyme fitness (log ratio)” value was at most -4.2.

A28U U33A U61A U77C A89U C96A A106G U127C U139A G141U C149A: the “polymerase ribozyme fitness (log ratio)” value was at most -4.2.

As to A28U A52C A66G A121U U145G C149G, the “polymerase ribozyme fitness (log ratio)” value was at most -4.2.

As for A29U A37C U61C C93G A115C G133A G141C, the “polymerase ribozyme fitness (log ratio)” value was at most -4.2.

For A28U C51A U77C G94A, the “polymerase ribozyme fitness (log ratio)” value was at most -4.2.

Take A29G C35U A60U G74U A106G A122G G124A: the “polymerase ribozyme fitness (log ratio)” value is at most -4.2.

As to A28U C32G C63U C75A G84A C131A U135C, the “polymerase ribozyme fitness (log ratio)” value was at most -4.2.

On to A29C A30G A40C G141A, for which the “polymerase ribozyme fitness (log ratio)” value was at most -4.2.

As to A28U C43U C87U U146A, the “polymerase ribozyme fitness (log ratio)” value is at most -4.2.
